Assay results reported in paper PMC4336329 (PLoS ONE, 2015).
Among all 310,000 compounds or so, about 2,200 (0.71%) showed an effect of 50% or more. The effect is printed as a negative number. The list shows a part of the results.

Each compound was assayed against human ether-à-go-go-related gene (hERG) potassium channel (human, UniProt Q12809) (assay: primary screen, population patch clamp on CHO cells stably expressing hERG).
human ether-à-go-go-related gene (hERG) potassium channel, sequence (Q12809 whole entry, looked up): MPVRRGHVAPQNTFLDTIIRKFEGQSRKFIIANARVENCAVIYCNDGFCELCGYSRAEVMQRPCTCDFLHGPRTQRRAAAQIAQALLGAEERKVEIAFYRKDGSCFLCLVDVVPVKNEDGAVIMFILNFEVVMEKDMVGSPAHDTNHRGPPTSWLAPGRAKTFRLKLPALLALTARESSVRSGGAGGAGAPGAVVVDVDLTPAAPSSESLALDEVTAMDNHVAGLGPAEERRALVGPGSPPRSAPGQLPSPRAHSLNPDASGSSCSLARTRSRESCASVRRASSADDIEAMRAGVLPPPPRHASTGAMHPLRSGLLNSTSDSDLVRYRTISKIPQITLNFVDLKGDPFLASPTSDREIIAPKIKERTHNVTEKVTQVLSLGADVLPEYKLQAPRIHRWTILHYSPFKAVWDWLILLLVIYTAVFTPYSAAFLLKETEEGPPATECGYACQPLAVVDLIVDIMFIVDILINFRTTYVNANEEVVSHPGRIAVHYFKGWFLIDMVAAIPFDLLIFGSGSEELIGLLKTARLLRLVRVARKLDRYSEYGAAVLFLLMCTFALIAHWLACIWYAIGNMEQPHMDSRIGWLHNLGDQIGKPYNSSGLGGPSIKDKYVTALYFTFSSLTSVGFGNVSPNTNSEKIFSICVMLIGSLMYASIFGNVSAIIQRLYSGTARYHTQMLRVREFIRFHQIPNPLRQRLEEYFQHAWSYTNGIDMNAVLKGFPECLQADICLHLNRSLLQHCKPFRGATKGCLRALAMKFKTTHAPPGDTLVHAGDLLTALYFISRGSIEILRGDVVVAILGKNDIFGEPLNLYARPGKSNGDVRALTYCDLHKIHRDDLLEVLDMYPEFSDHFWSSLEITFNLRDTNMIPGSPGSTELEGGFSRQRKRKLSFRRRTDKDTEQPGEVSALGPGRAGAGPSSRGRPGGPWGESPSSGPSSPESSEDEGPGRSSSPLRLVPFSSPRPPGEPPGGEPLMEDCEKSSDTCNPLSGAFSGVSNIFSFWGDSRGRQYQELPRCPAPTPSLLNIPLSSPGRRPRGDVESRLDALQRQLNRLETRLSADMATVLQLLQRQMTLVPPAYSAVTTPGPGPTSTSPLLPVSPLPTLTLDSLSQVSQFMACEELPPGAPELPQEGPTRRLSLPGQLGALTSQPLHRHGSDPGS

In order of rising “hERG current change (%, negative = inhibition) at 1uM” value:
1. CCN(CC)S(=O)(=O)c1ccc(S(=O)(=O)N(Cc2ccccn2)Cc2ccco2)cc1  -22.8%
2. CCOc1ccc(Nc2nc(Cc3nnc(SCC(=O)NC4CCCC4)n3C)cs2)cc1  -13.9%
3. CCN(CCn1cccn1)C(=O)CCc1nnc(CCCc2ccccc2)o1  -11.6%
4. CN(C)S(=O)(=O)c1ccc(Cl)c(NC(=O)CN2CCNC(=O)C2)c1  -8.8%
5. COc1ccc(Cl)cc1NS(=O)(=O)c1cccc(C(=O)NCC(c2ccco2)N(C)C)c1 (stereo not drawn)  -8.48%
6. COc1ccccc1-c1nc(SCC(=O)Nc2cc(C)on2)c2c(=O)n(C)c(=O)n(C)c2n1  -7.36%
7. COC(=O)C1=C(c2c(C)noc2C)C[C@@H]2CC[C@H]1N2C(=O)N1CCC(O)(c2ccc(Cl)cc2)CC1  -6.46%
8. CC1CN(C(=O)c2ccccc2Nc2ccc(SC(F)F)cc2)CC(C)O1 (stereo not drawn)  -2.86%
9. CCN(C(=O)Cc1ccc(Br)cc1)C1CCCCC1  -2.56%
10. Clc1ccc(C2=Nn3c(nnc3-c3cccs3)SC2)cc1  -1.98%
11. CCN(C(=O)COC(=O)c1cc(=O)c2ccccc2o1)c1c(N)n(Cc2ccccc2)c(=O)[nH]c1=O  -1.09%
12. CC(C)Oc1cccc(C(=O)C2CCCN(Cc3cnc(N4CCCC4)s3)C2)c1 (stereo not drawn)  -0.235%
13. CCCN(CC(=O)Nc1ccc(F)c(F)c1F)C(=O)Cn1c(=O)cnc2ccccc21  0.188%
14. CC1(C)CC(=O)C(C=NCCCn2ccnc2)=C(O)C1  1.22%
15. O=C1CCC(C(=O)N2CCCCO2)CN1CCc1ccc(Cl)cc1 (stereo not drawn)  1.45%
16. O=[N+]([O-])c1cc(S(=O)(=O)C(F)(F)F)ccc1N1CCN(c2ccccc2)CC1  2.35%
17. Cc1ccccc1NC(=O)NCC1CCN(C(=O)OC(C)(C)C)CC1  2.43%
18. Cc1ccccc1Cn1cnc2c(nnn2Cc2ccc(F)cc2)c1=O  2.63%
19. COc1ccc(OC)c2[nH]c(=O)c(CCNC(=O)Cc3cccs3)cc12  2.63%
20. C=CCSc1n[nH]c(-c2ccccc2)n1  2.69%
21. CCc1nc(N2CCC3(CC2)OCCO3)c2nnn(Cc3ccccc3)c2n1  2.78%
22. Cc1nc2ccc(NC(=O)N(C(C)C)C(C)C)cc2s1  3.18%
23. O=C(N/N=C/c1cccc(F)c1)NC1CCCCC1  3.4%
24. CCOC(=O)C1CCN(C(=O)Cn2c(=O)oc3cc(S(=O)(=O)N4CCCC4)ccc32)CC1  4.08%
25. CC(=O)c1ccc(NC(=O)CSc2nc(Nc3ccccc3)nc(N3CCOCC3)n2)cc1  4.14%
26. Cc1n[nH]c(C)c1-c1nc2ccccc2[nH]1  4.23%
27. Cc1ccc(C)n1-c1ccc(N2CCOCC2)nc1  4.5%
28. Cc1cccc(NC(=O)CN2CCC(NC(=O)C3CCCCC3)CC2)c1C  4.86%
29. CS(=O)(=O)N1Cc2ccccc2CC1C(=O)Nc1ccccc1C(N)=O (stereo not drawn)  5.22%
30. C[C@H]1[C@@H](c2ccccc2)O[C@@H](c2ccccc2Br)N1C  6.25%
31. O=C(CCCn1c(=S)[nH]c2ccsc2c1=O)Nc1ccc2c(c1)OCCO2  6.26%
32. O=C([O-])c1ccccc1-c1c2cc(I)c(=O)c(I)c-2oc2c(I)c([O-])c(I)cc12.[Na+]  6.4%
33. C#CCOCCOCCOCCNc1nc(N2CCN(C(=O)C([C@@H](C)CC)n3cc(C(N)CO)nn3)CC2)nc(N2CCN(C(=O)[C@H](CCC(=O)O)n3cc(C(N)CC(C)C)nn3)CC2)n1.Cl (stereo partly drawn)  6.54%
34. O=C(Nc1ccc(NC(=O)c2cccs2)cc1)c1ccc(Br)o1  6.6%
35. O=C(NC1CCCCC1)c1ccc(S(=O)(=O)N2CCCCC2)cc1  7.45%
36. CCc1ccc(Nc2nc(C)cc(C)c2C(N)=O)cc1  7.64%
37. CCC(C(=O)OCC(=O)N1CCN(c2ccc(OC)cc2)CC1)c1ccccc1 (stereo not drawn)  7.79%
38. O=C(Nc1ccc(Cl)c(Cl)c1)Nc1nnc(-c2ccncc2)s1  7.89%
39. CCCCC1=CC2=C(c3ccco3)C(=O)C(C)(OC(=O)c3ccc(OC)cc3)C(=O)C2=CN1C1CCCCC1 (stereo not drawn)  8.24%
40. Cc1c(C(=O)Nc2ccc(F)c(F)c2)oc2ccc(S(=O)(=O)N3CCCCC3)cc12  8.33%
41. CCc1c(O)cc2n(c1=O)-c1ccccc1C2(C)C  8.42%
42. Cc1ccc(CSc2nnc(CCNC(=O)OC(C)(C)C)o2)cc1  8.43%
43. Cc1nnsc1S(=O)c1ccc(Cl)c(Cl)c1 (stereo not drawn)  8.53%
44. COC(=O)c1cc2c(C)[nH]c(C)c2cc(C(=O)OC)c1=O  8.7%
45. CNC(=S)N(CCCn1ccnc1)Cc1c(F)cccc1Cl  8.71%
46. CCn1nc(C(=O)NNC(=O)c2cc(Cl)ccc2OC)c2ccccc2c1=O  8.9%
47. O=C1NC(SCCCF)=N/C1=C/c1ccc(-n2cncn2)cc1  9.34%
48. Cc1nc2sc(C(=O)O)c(N)c2c2c1COC(C)(C)C2  9.47%
49. COC(=O)C1CC(=O)N(Cc2ccccc2)C1 (stereo not drawn)  10.4%
50. Cc1cc2cc(C#N)c(N3CCOCC3)nc2cc1Cl  10.5%
51. O=C1OCCN1C(=O)[C@H]1[C@H](c2ccc([N+](=O)[O-])cc2)C(c2cccc(Cl)c2)=NN1c1ccccc1  10.5%
52. O=C(N/N=C/c1cccs1)c1cccc(NC(=O)c2ccc(Cl)cc2)c1  10.7%
53. CC1(C)NC(=O)N(CCCCOc2ccc3ccccc3c2Cl)C1=O  10.8%
54. CCOc1ccc(C2/C(=C(/O)c3ccc(S(=O)(=O)N4CCCCC4)cc3)C(=O)C(=O)N2CCCOC)cc1OC (stereo not drawn)  10.8%
55. CCOc1cc(NS(=O)(=O)c2ccc(NC(C)=O)cc2)c(OCC)cc1NC(=O)C(C)C  10.9%
56. CC(=O)N1CCN(c2ccc(NS(=O)(=O)c3ccc(C)cc3)cc2)CC1  11.3%
57. COc1ccccc1-c1nc(-c2ccccc2)nc(N2CCN(C)CC2)c1C#N  11.3%
58. COCCCNC(=O)CCc1nc(-c2ccccc2Cl)no1  11.4%
59. O=C(CSc1nnc(-c2ccco2)o1)c1ccc(F)c(F)c1  11.5%
60. O=C(Nc1cccc(F)c1)c1cc(S(=O)(=O)N2CCOCC2)cs1  11.5%
61. CCc1ccc(NC(=O)Cn2nc(C)c([N+](=O)[O-])c2C)cc1  11.6%
62. CC1CCN(CCCNC(=O)C2CCCN(c3ncnc4c3nc3n4CCCCC3)C2)CC1 (stereo not drawn)  11.6%
63. COC(=O)c1ccccc1NC(=O)CN1CCC(n2nnc3cc(C(F)(F)F)ccc32)CC1  12.3%
64. CC1=NN(c2ccc(Cl)cc2)C(=O)/C1=C\c1cccn1-c1ccc(S(N)(=O)=O)cc1  13.1%
65. COc1ccc(N2CCN(C(=O)c3ccc4c(c3)NC(=O)C(CSCc3c(F)cccc3Cl)N4)CC2)cc1 (stereo not drawn)  13.1%
66. COc1cc(NC(=O)COc2ccccc2Cl)ccc1NC(=O)C(C)C  13.6%
67. O=C(NNC(=S)NCC1CCCO1)c1cc(Br)ccc1Cl (stereo not drawn)  13.8%
68. COc1ccccc1N(C(=O)c1csnn1)C(C(=O)NC1CCCC1)c1ccccc1 (stereo not drawn)  14.2%
69. Cc1ccc(S(=O)(=O)n2ccc(-c3cccc(OCc4c(F)cccc4Cl)c3)n2)cc1  14.4%
70. CC(C)(C)OC(=O)NC(CCNC=C1C(=O)OC(C)(C)OC1=O)C(=O)O (stereo not drawn)  14.6%
71. Cc1ccc(S(=O)(=O)N2CCCC2c2nc3ccccc3s2)cc1 (stereo not drawn)  15%
72. CC(=O)C1=C(O)C(=O)N(c2ccc(Br)cn2)C1c1ccc(F)cc1 (stereo not drawn)  15.6%
73. CC(=O)c1nc(N2C(=O)C3CC=C(C)CC3C2=O)sc1C (stereo not drawn)  15.8%
74. CCOC(CNc1c([N+](=O)[O-])c(=O)n(C)c(=O)n1C)OCC  16.3%
75. Cc1ccc(C(C(=O)NCC2CCCO2)N(C(=O)c2snc(C(N)=O)c2N)c2ccc(C(C)C)cc2)o1 (stereo not drawn)  16.5%
76. Cc1ccc(NC(=O)CN(C)C(=O)Cn2ccsc2=N)cc1.Cl  16.9%
77. CC(NC(=O)c1cccnc1Sc1ccccc1)c1ccc(S(N)(=O)=O)cc1 (stereo not drawn)  17.4%
78. CS(=O)(=O)c1ccccc1-c1nnc(NC(=O)c2ccco2)o1  17.6%
79. CC1=C(C(=O)OCC(C)C)C(c2cccc(F)c2)N2C(=O)C(C)SC2=N1 (stereo not drawn)  17.6%
80. CCC1(CC)C(=O)C2=C3C1[C@H](C(=O)OC)CC(C(=O)OC)C[C@H]3n1c(=O)n(C)c(=O)n1[C@H]2C (stereo partly drawn)  17.9%
81. Cc1ccc(C(=O)N2CCC3(CC2)Oc2ccc(F)cc2C(=O)C32CC(c3ccc(Cl)cc3)=NO2)s1 (stereo not drawn)  18.9%
82. CCn1c(SCC(N)=O)nc2c1c(=O)n(C)c(=O)n2C  19.1%
83. Cc1sc(NC(=S)NC(=O)c2ccco2)c(C(N)=O)c1C  20.1%
84. O=C(O)CC(NC(=O)Nc1ccccc1)c1ccc(OC2CCCC2)cc1 (stereo not drawn)  25.5%
